# Reference: PubChem BioAssay AID2451 (National Center for Advancing Translational Sciences (NCATS), 2010)
# About 2,100 (0.72%) of roughly 290,000 compounds were called active. The shares of active, inactive and inconclusive entries below differ from those in the screen. Calls follow the shape of the dose curve; as a rule, active = well fitted inhibition curve with a large enough effect; inconclusive = small, poorly fitted or top-dose-only effect, or effect the other way; inactive = flat fitted curve, though single readings scatter. Potencies of inconclusive entries are doubtful fits and often do not repeat.
# Target: Fructose-bisphosphate aldolase (Giardia intestinalis (strain ATCC 50803 / WB clone C6)) (UniProt A8B2U2)
# Test: qHTS Assay for Inhibitors of Fructose-1,6-bisphosphate Aldolase from Giardia Lamblia; also: nearly all actives have a fitted effect of over 55% in size
# Details: purified Giardia FBPA; activity, negative = inhibition: at 59.6 µM (top of the series) unless noted
# In short: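 40 nM FBPA preincubated 10 min at RT with compound (up to 57.5 uM final), then substrate plus GAPDH/TPI/NAD/arsenate coupling and diaphorase/resazurin added. Fluorescence read after 20 min at RT, 525/598 nm.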
# % is scaled to controls: 0 for no effect and ±100 for the full control effect; potency is read from the fitted curve at half-maximal effect; tags tell the direction and shape of the fitted curve.
# Sequence of UniProt A8B2U2 (A8B2U2 whole entry, looked up): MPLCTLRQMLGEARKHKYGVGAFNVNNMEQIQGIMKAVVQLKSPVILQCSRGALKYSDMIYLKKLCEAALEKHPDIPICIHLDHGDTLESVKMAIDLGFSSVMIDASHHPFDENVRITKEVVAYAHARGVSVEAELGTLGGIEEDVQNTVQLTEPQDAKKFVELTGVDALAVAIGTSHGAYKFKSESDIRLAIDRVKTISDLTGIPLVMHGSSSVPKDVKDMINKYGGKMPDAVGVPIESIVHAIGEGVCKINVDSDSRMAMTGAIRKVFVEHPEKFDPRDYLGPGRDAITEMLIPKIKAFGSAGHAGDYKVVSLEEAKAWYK
SMILES,"activity, negative = inhibition",Potency
c1cc[n+](CCCC[n+]2ccccc2)cc1,inactive: -6.82%,–
CCCS(=O)(=O)N1CCN(Cc2c[nH]c3ccccc23)CC1,–,"inconclusive: 17.7 µM [inhibitor, partial curve]"
CC1CCCCN1S(=O)(=O)c1ccc(C(=O)Nc2nnc(C3CC3)o2)cc1 (stereo not given),–,"inconclusive: 31.6 µM [inhibitor, single point]"
Cc1ccn(CCSCC(=O)O)n1,–,"inconclusive: 15.8 µM [inhibitor, single point]"
c1ccc(CSc2ccc(-c3ccccn3)nn2)nc1,–,"inconclusive: 31.5 µM [inhibitor, single point]"
COc1cccc(CNc2ccc(C(=O)O)cc2)c1OCc1ccccc1,–,"inconclusive: 15.8 µM [activator, single point]"
CC(=O)Nc1ccc(S(=O)(=O)N2CCN(CC3CC4C=CC3C4)CC2)cc1 (stereo not given),–,"inconclusive: 14.1 µM [inhibitor, partial curve]"
CN1CCc2c(n(CC(O)CN(CCO)CCO)c3ccccc23)C1=O (stereo not given),–,"inconclusive: 12.6 µM [inhibitor, partial curve]"
COc1ccc(NN=Nc2nc3c([nH]2)c(=O)n(C)c(=O)n3C)cc1,–,active: 17.7 µM
CC1(C)CC(=O)C(C=Nc2ccc(O)c(N=CC3=C(O)CC(C)(C)CC3=O)c2)=C(O)C1,–,"inconclusive: 1.58 µM [inhibitor, full curve]"
O=C(/C=C/c1ccc(Br)cc1)NC(=S)N1C[C@H]2C[C@H](C1)c1cccc(=O)n1C2,–,"inconclusive: 11.2 µM [inhibitor, partial curve]"
N#C/C(=N\Nc1ccccc1)C(=N)N1CCCCCC1,inactive: -18.4%,–
COc1ccc(Cc2nnc(N/N=C/c3ccccc3O)[nH]c2=O)cc1OC,–,"inconclusive: 44.6 µM [activator, single point]"
CCOc1ccc(CNc2ncc(-c3ccccc3)n2C)cc1,–,"inconclusive: 31.6 µM [inhibitor, partial curve]"
Oc1cccc(C(Nc2nccs2)c2ccc3cccnc3c2O)c1 (stereo not given),–,"inconclusive: 44.6 µM [inhibitor, single point]"
Cc1cc(C(=O)Nn2cnc3ccccc3c2=O)ccc1[N+](=O)[O-],inactive: 11.1%,–
CC(=O)c1ccc(-c2ccc(-c3cc(=O)oc4c(C(C)C)ccc(C)c34)cc2)cc1,inactive: -2.1%,–
Fc1ccccc1CNCCc1ccc2c(c1)OCO2,–,"inconclusive: 28.2 µM [inhibitor, single point]"
Cc1cc(C)c(C)c(OCCNCc2ccccc2)c1,–,"inconclusive: 25.1 µM [inhibitor, single point]"
O=[N+]([O-])c1ccc(/C=N/N=C/c2ccc([N+](=O)[O-])o2)o1,–,"inconclusive: 3.97 µM [inhibitor, partial curve]"
